Experimental data taken from patent US7422849 (LUDWIG INSTITUTE FOR CANCER RESEARCH, dated 2008).

Molecular target: bovine p85α (bovine, UniProt P23727 1-724)
Test: cell-based or functional assay

Chain of UniProt P23727 (P23727 whole entry): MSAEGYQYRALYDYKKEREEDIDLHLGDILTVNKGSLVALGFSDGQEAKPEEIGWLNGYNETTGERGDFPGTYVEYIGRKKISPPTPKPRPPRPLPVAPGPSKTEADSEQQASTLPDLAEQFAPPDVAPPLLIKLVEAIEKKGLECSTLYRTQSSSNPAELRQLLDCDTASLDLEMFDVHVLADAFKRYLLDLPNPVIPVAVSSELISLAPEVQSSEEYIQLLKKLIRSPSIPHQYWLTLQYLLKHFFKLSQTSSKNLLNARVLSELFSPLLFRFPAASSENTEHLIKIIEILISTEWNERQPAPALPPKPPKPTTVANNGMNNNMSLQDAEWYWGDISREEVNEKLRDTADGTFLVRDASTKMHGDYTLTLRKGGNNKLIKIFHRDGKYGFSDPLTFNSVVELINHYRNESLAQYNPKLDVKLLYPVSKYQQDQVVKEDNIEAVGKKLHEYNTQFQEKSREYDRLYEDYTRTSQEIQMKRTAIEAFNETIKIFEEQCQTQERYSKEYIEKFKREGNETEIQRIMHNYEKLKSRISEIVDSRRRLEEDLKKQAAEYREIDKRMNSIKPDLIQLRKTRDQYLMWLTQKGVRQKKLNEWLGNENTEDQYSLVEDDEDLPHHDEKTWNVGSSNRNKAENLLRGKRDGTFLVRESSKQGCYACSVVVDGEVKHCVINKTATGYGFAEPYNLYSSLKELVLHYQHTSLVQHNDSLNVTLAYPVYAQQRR

B1: bovine p110 (enzyme)
chain: not shown
  PI3-kinase activity in anti-p85α immunoprecipitates of transfected COS-1 cells: 10 fold
